# Results taken from PubChem BioAssay (NCI).
#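 How tested: cells in 96-well plates exposed to compound for 48 hours at five concentrations. GI50: concentration for 50% inhibition of growth.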 Not every entry of the source has a single result; some have several. Only these are listed. The source may hold further records. For some of these results: The records of an entry are repeats in other runs, samples, wells, individuals or studies. Brackets tell where a record comes from. The letters are not those of the source and start again with each entry.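 TGI marks complete inhibition of growth.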 For some of these results: The tests behind the records often covered other concentration ranges, not given here; a value can be the end of its range.
# Key:
# Assay in all cases: NCI-60 cell line screen, 48 h
# CAKI-1 renal = test system: CAKI-1 renal
# HOP-62 NSCLC = test system: HOP-62 NSCLC
# SNB-19 CNS = test system: SNB-19 CNS
# HOP-92 NSCLC = test system: HOP-92 NSCLC
# SF-295 CNS = test system: SF-295 CNS
# OVCAR-8 ovarian = test system: OVCAR-8 ovarian
# COLO 205 colon = test system: COLO 205 colon
# SK-MEL-2 melanoma = test system: SK-MEL-2 melanoma
# RXF 393 renal = test system: RXF 393 renal
# U251 CNS = test system: U251 CNS
# NCI-H522 lung = test system: NCI-H522 lung
# NCI-H226 lung = test system: NCI-H226 lung
# HT29 colon = test system: HT29 colon
structure (smiles),measurement,setting,value
c1ccc2[nH]c(-c3cscn3)nc2c1,GI50,CAKI-1 renal,"> 100 µM [sample A, 1 test] and 6.76 µM [sample B, 1 test]"
same,GI50,HOP-62 NSCLC,"> 100 µM [sample A, 1 test] and 575 nM [sample B, 1 test]"
Nc1nc2c(ncn2C2OC(CO)C(O)C2O)c(=O)[nH]1 (stereo not drawn),GI50,SNB-19 CNS,"9.44 µM [sample A, mean of 4 tests] and > 100 µM [sample B, 1 test]"
CC1(O)CC2C(CC1SCc1ccccc1)C2(C)C (stereo not drawn),GI50,HOP-92 NSCLC,"23.2 µM [sample A, 1 test] and 75.4 nM [sample B, 1 test]"
CC(=O)O[C@H]1C(=O)[C@@]2(C)C([C@H](OC(=O)c3ccccc3)[C@]3(O)C[C@H](OC(=O)[C@H](O)[C@@H](NC(=O)c4ccc(Cl)cc4)c4ccccc4)C(C)=C1C3(C)C)C1(OC(C)=O)CO[C@@H]1C[C@@H]2O (stereo partly drawn),TGI,SF-295 CNS,4.84 µM and 85.9 µM
same,TGI,OVCAR-8 ovarian,920 nM and > 100 µM
same,TGI,COLO 205 colon,211 nM and 15.9 nM
same,TGI,SK-MEL-2 melanoma,115 nM and 16.7 µM
same,TGI,RXF 393 renal,25 µM and 541 nM
same,TGI,U251 CNS,1.32 µM and > 100 µM
same,TGI,NCI-H522 lung,413 nM and 15.9 nM
CC(C)(C)c1cnc(CSc2cnc(NC(=O)C3CCNCC3)s2)o1,TGI,NCI-H226 lung,"> 100 µM [sample A, 1 test] and 1.44 µM [sample B, mean of 2 tests]"
same,TGI,HT29 colon,"891 nM [sample A, mean of 2 tests] and > 10 µM [sample B, mean of 2 tests]"
